Laboratory results published in PubChem BioAssay AID2101 (National Center for Advancing Translational Sciences (NCATS), 2009).
Among all 330,000 compounds or so, about 300 (0.091%) were called active. The shares of active, inactive and inconclusive entries below differ from those in the screen. Calls come from the whole dose curve; as a rule, active = well fitted inhibition curve with a large enough effect; inconclusive = small, poorly fitted or top-dose-only effect, or effect the other way, or another doubt; inactive = no such curve, though single readings can be large or run the other way. No potency is given beside an inconclusive call; the fits are too rough.
Potency is the fitted concentration of half-maximal effect.
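Throughout, for activity change, negative = inhibition: 0% = full enzyme activity and -100% = no enzyme basal.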

These compounds were tested against Lysosomal acid glucosylceramidase (Homo sapiens) (UniProt P04062) (assay: qHTS Assay for Inhibitors and Activators of N370S glucocerebrosidase as a Potential Chaperone Treatment of Gaucher Disease). Details: N370S GC spleen homogenate, 4MU-glucoside fluorescence; activity change, negative = inhibition: at 59.4 µM (top of the series) unless noted.
For O=C(/C=C/C=C/c1ccccc1)c1ccco1, the Potency was “inactive”. Cc1ccc(S(=O)(=O)N2CCN(c3ccc([N+](=O)[O-])c(NCCN4CCOCC4)c3)CC2)cc1 was tested, and the Potency was inconclusive [inhibitor, full curve, poor fit]. CC(=O)N1N=C(c2ccccc2O)CC1c1cccs1 (stereo unspecified) was tested, and the Potency was inconclusive [activator, partial curve]. In the case of COc1cc(/C=N/NC(=S)NCc2ccccc2)ccc1OCC#N, the Potency is reported as inconclusive [inhibitor, full curve, poor fit]. With COc1ccccc1NC(=O)CN1CCN(CC(=O)Nc2ccc(OCc3ccccc3)cc2)CC1 the Potency was inconclusive [inhibitor, partial curve, poor fit]. For Cc1ccc2n(n1)c(=O)c(Cc1ccccc1)c([O-])[n+]2-c1ccccc1, the activity change, negative = inhibition was inconclusive: 30.3% [activator]. COC(=O)CC1=COC2OCC3=CC[C@@H]1C32 (stereo partly specified) was tested, and the activity change, negative = inhibition was inactive: 2.48% [at 12.8 µM]. In the case of CCOC(=O)c1cc(C(=O)OCC)c2cc(Br)ccc2n1, the Potency is reported as inconclusive [activator, partial curve]. For N#Cc1c(NC(=O)C2CC(c3c(F)cccc3Cl)=NO2)sc2c1CCC2 (stereo unspecified), the Potency was inconclusive [activator, partial curve]. In the case of CCC(Oc1ccccc1)C(=O)Nc1cc(C(F)(F)F)ccc1N1CCOCC1 (stereo unspecified), the Potency is reported as inconclusive [activator, partial curve]. In the case of Cc1ccc(S(=O)(=O)/C(C#N)=C/c2c(N3CC(C)OC(C)C3)nc3ccccn3c2=O)cc1 (stereo unspecified), the Potency is reported as inconclusive [activator, partial curve]. With CCc1cc(C(=O)N2CCCC(CNC(=O)c3ccc(-c4ccccc4)cc3)C2)no1 (stereo unspecified) the Potency was inconclusive [activator, partial curve]. For O=C(c1ccc(COc2ccccc2Br)o1)N1CCCCCC1, the Potency was inconclusive [activator, single point]. For O=C1NC(=O)C(c2ccccc2[N+](=O)[O-])=C1Nc1ccc(O)c(Cl)c1, the Potency was inconclusive [inhibitor, partial curve]. With C#CCOCCOCCOCCNc1nc(N2CCN(C(=O)CCCCCCCCCCNC(=O)[C@@H](CCC(=O)O)n3cc(CCCCCN)nn3)CC2)nc(N2CCN(C(=O)CCCCCCCCCCNC(=O)[C@H](CO)n3cc(CCCSC)nn3)CC2)n1 the Potency was inconclusive [inhibitor, full curve, poor fit]. In the case of COc1cccc2oc3ccc(C#CC4(N)CCCCC4)cc3c(=O)c12, the Potency is reported as “inactive”. O=C(CSc1ccc2nc(-c3ccccc3)cn2n1)NCC1CCCO1 (stereo unspecified) was tested, and the Potency was inconclusive [activator, partial curve]. In the case of Cc1ccccc1NC(=O)Cc1cccc(C(F)(F)F)c1, the Potency is reported as inconclusive [activator, single point]. With COc1ccc(NC(=O)CN2C(=O)CC(C)(C)S(=O)(=O)c3ccccc32)cc1 the Potency was inconclusive [activator, partial curve]. For COc1cccc2cc(C(=O)N3CCCCC3C)c(=O)oc12 (stereo unspecified), the Potency was “inactive”. O=S(=O)(Nc1nc(CN2CCOCC2)nc2sc3c(c12)CCCC3)c1cc(F)ccc1F was tested, and the Potency was inconclusive [activator, partial curve]. For Cc1ccc(-c2cn3cccnc3n2)cc1NC(=O)c1ccc(Br)o1, the Potency was inconclusive [activator, partial curve]. For O=C(Cc1c[nH]c2ccccc12)N1CCc2ccccc21, the Potency was “inactive”. In the case of O=[N+]([O-])c1ccc(Nc2nc(NCCO)nc(N3CCCC3)n2)cc1, the Potency is reported as inconclusive [inhibitor, partial curve]. In the case of Cc1ccc(CCNC(=O)CN2C(=O)COc3ccc(S(=O)(=O)N4CCC(C)CC4)cc32)cc1, the Potency is reported as inconclusive [inhibitor, single point]. In the case of Cc1cccc(Cc2c(C)nc3c(C(=O)NCc4ccco4)cnn3c2C)c1, the Potency is reported as inconclusive [activator, partial curve, poor fit]. With CCCc1cc(NCCN(C)C)n2c(nc3ccccc32)c1C#N the Potency was inconclusive [activator, partial curve]. With Cc1cc(Nc2ccc(O)cc2)n2c(nc3ccccc32)c1C#N the Potency was inconclusive [inhibitor, single point]. With Cc1ccc(NC(=O)C2(NC(=O)c3ccccn3)CCCCC2)cc1Br the Potency was inconclusive [activator, single point]. For CCOc1cccc(-c2nnc3sc(C4CCCCC4)nn23)c1, the Potency was inconclusive [activator, partial curve]. CC(C)c1ccc(NC(=O)C(c2ccc3c(c2)OCO3)N2CCC3(CC2)OCCO3)cc1 (stereo unspecified) was tested, and the Potency was inconclusive [inhibitor, partial curve, poor fit]. With C=CCn1c(SCC(=O)NCCOC)nc2scc(-c3ccco3)c2c1=O the Potency was “inactive”. COC/C=C/C1=CC2=CC(=O)C(C)(OC(=O)c3cnc4ccccc4n3)C(=O)C2=CN1C(CO)CO (stereo unspecified) was tested, and the Potency was inconclusive [inhibitor, single point]. For COc1ccc(C(CNC(=O)c2ccc(NS(=O)(=O)c3ccc(F)c(C)c3)cc2)N2CCOCC2)cc1 (stereo unspecified), the Potency was active: 14.1 µM. With COc1ccccc1-c1cn[nH]c(=S)n1 the Potency was inconclusive [activator, single point]. For COc1cc(-c2nc3ccccn3c2/N=C/c2cc(OC)c(O)cc2Cl)ccc1O, the Potency was inconclusive [inhibitor, partial curve]. In the case of O=C(/C=C/c1ccccc1)Nn1c(-c2cccs2)nc2ccccc2c1=O, the Potency is reported as inconclusive [activator, partial curve]. In the case of CCOc1ccc(C2/C(=C(/O)c3ccc4c(c3)CC(C)O4)C(=O)C(=O)N2CCCn2ccnc2)cc1 (stereo unspecified), the Potency is reported as inconclusive [inhibitor, full curve, poor fit]. With O=C(N/N=C\c1ccccn1)C1COc2cc3ccccc3cc2O1 (stereo unspecified) the Potency was inconclusive [activator, single point]. In the case of N/C(=N\OC(=O)c1ccc(Br)cc1)c1ccncc1, the Potency is reported as “inactive”. With COc1ccc(S(=O)(=O)Nc2cc(C(=O)NC3CCCCCC3)ccc2N2CCOCC2)cc1 the Potency was inconclusive [activator, partial curve]. With CNC(=S)N(CCc1ccccc1)Cc1cc2cc(OC)c(OC)cc2[nH]c1=O the Potency was “inactive”. With COc1ccc2nc(Cl)c(/C=N/Nc3ccccn3)cc2c1 the Potency was inconclusive [inhibitor, single point]. For Cc1ccc(C(=O)O/N=C2\CC3CCC2(C)C3(C)C)cc1 (stereo unspecified), the Potency was inconclusive [activator, partial curve]. With CC(C)CNC(=S)N(CCO)Cc1cc2cc3c(cc2[nH]c1=O)OCO3 the Potency was inconclusive [activator, partial curve]. In the case of O=C(NCC(c1ccco1)N1CCCCC1)c1ccc(NS(=O)(=O)c2ccc(F)cc2)cc1 (stereo unspecified), the Potency is reported as inconclusive [inhibitor, partial curve]. For Cc1ccc(-c2nnc(N3CCN(C(=O)c4ccco4)CC3)c3ccccc23)cc1, the Potency was inconclusive [activator, partial curve, poor fit]. CCOC(=O)c1c(C)[nH]c(C)c1S(=O)(=O)NCCN1CCN(c2cc(Cl)ccc2C)CC1 was tested, and the Potency was inconclusive [inhibitor, single point]. In the case of COCCCn1c(C(=O)NCCC2=CCCCC2)cc2c(=O)n3cccc(C)c3nc21, the Potency is reported as inconclusive [activator, single point]. In the case of O=C(NCCCN1CCOCC1)c1ccc(-n2nc(C(F)(F)F)cc2-c2cccs2)cc1, the Potency is reported as inconclusive [inhibitor, single point]. With COC(=O)NC(c1ccco1)[C@]1(C(C)=O)CCCC1=O (stereo partly specified) the activity change, negative = inhibition was inactive: 8.97% [at 12.8 µM]. With CN(C)CCNc1oc(/C=C/c2ccccc2)nc1C#N the Potency was inconclusive [activator, partial curve]. In the case of CCOC(=O)c1cc(-c2ccc(Cl)cc2)nc2c1c(=O)[nH]c(=O)n2CCOC, the Potency is reported as inconclusive [activator, partial curve]. In the case of O=c1oc2c3c4c(cc2c2c1CCC2)OCCN4CCC3, the Potency is reported as inconclusive [activator, partial curve]. COc1cccc(NC(=O)[C@H](NC(=O)[C@@H]2Cc3ccccc3CN2)c2ccccc2)c1 was tested, and the Potency was inconclusive [inhibitor, single point]. With CCc1ccc(-c2nc(CN3CCCC(C(=O)NCCc4ccc(OC)c(OC)c4)C3)c(C)o2)cc1 (stereo unspecified) the Potency was inconclusive [inhibitor, single point]. COc1ccccc1CNC(=O)c1ccc(-c2ccccc2C(F)(F)F)o1 was tested, and the Potency was inconclusive [activator, single point]. For COC(=O)N1C(c2ccccc2)=Cc2ccccc2C1CC(C)=O (stereo unspecified), the activity change, negative = inhibition was inactive: -8.39% [at 12.8 µM]. O=C(CN(Cc1cccs1)C(=O)CN1C(=O)COc2ccccc21)NCc1ccco1 was tested, and the Potency was inconclusive [activator, partial curve]. In the case of O=C1C(Cl)=C(NCCCN2CCOCC2)C(=O)N1CCc1ccccc1, the Potency is reported as inconclusive [inhibitor, single point]. Cc1ccc(S(=O)(=O)n2ccc3c(OCCOCCNCc4ccc(F)cc4)cccc32)cc1 was tested, and the Potency was inconclusive [inhibitor, partial curve].
